Measurements reported in the supplement of paper PMC7125110.
± gives the standard error. Variants at the background level are over-represented here.

B1: glmS ribozyme (parent)
chain: AUAAAAGCGCCAGAACUACAGAAAUGUAGUUGACGAGGAGGAGGUUUAUCGAAUUUUCGGCGGAUGCCUCCAAA

Variants of: B1
Assay: self-cleavage kobs at 2500 uM GlcN6P; higher = faster cleavage; RNA array
Conditions: with glucosamine-6-phosphate
In short: (§1)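 E. coli RNA polymerase transcribed barcoded ribozyme variants in situ on sequenced MiSeq chips, which were tracked via a hybridised Cy3 probe at 37 °C. Tiles were imaged over ~14 h after glucosamine-6-phosphate (40 μM to 10 mM) in HEPES/KCl/Mg(OAc)2 buffer was flowed in. Normalised per-tile medians were fit to one- or two-exponential decays for kobs, and kcat and KM came from weighted Michaelis–Menten fits.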

Variant | self-cleavage kobs at 2500 uM GlcN6P [s⁻¹]
A39U U49A U56G | < 1e-05
G40A C61U A64C U65A | < 1e-05
G40A G43A U69G C70G | < 1e-05
G40A G43U C61G | < 1e-05
G40A G60U G63U C67A | < 1e-05
G40C A48G A52U C58U | < 1e-05
G40C A52G G60A | < 1e-05
G40C U45G A64U | < 1e-05
G40C U47A U65G | 0.000652 ± 0.00017
G40C U56A C61G C67U | < 1e-05
G40U G51U U69C C71U | < 1e-05
G40U U49G | 9.77e-05 ± 2e-05
G41A A53G U55A | 0.000666 ± 0.00022
G41A C50U C67U | < 1e-05
G41A C58U G63U | < 1e-05
G41C A42U G60C G62C | < 1e-05
G41C A64U | < 1e-05
G41C U47C C61G C67U | < 1e-05
G41C U54G G63U | < 1e-05
A42C C58U C71G | < 1e-05
A42G U54C G59U G60C C61G | < 1e-05
A42U A48G C61A | < 1e-05
A42U A52U U55C C70G | < 1e-05
A42U A53U | 8.5e-05 ± 1.5e-05

Variant | self-cleavage kobs at 2500 uM GlcN6P [s⁻¹]
G43A U47G G62A | < 1e-05
G43U A48G C50G C67U | < 1e-05
G43U C50U C71U | < 1e-05
G43U G44A U65A | < 1e-05
G44A G51U U57A | < 1e-05
G44C U55C C70G | < 1e-05
U45A U47C G63U | < 1e-05
U45G U56C C70U C71A | < 1e-05
U46A A64G G66A C71G | 6.58e-05 ± 2.6e-05
U46C G51C C58U C67A | < 1e-05
U46G A48U G60U | < 1e-05
U46G C61U A64G | < 1e-05
U46G G51A G62A | < 1e-05
U47A C61G C71U | < 1e-05
U47A G60U C61A G62C C68U | < 1e-05
U47C A48G A52C G62A | < 1e-05
U47C U57C C71G | < 1e-05
U47G A48U U56G C68A | 0.000324 ± 0.00012
U47G U57G | 6.68e-05 ± 2.2e-05
A48U C71A | 0.000102 ± 2.6e-05
A48U G60C U65G | < 1e-05
U49A C58G G63U | < 1e-05
U49A U65C | < 1e-05
U49C G60U C67G | < 1e-05

Variant | self-cleavage kobs at 2500 uM GlcN6P [s⁻¹]
U49C G63C C67A | < 1e-05
U49G A53G U69G | 4.58e-05 ± 1.6e-05
U49G U69A | 8.22e-05 ± 2.2e-05
C50U C68U | 3e-05 ± 1.2e-05
G51A C58U G63A | < 1e-05
G51C C67G C71U | < 1e-05
G51U A52U U54G U55C | < 1e-05
G51U A53G G59U | < 1e-05
G51U G59C G66U | < 1e-05
A52C U57C G66U | < 1e-05
A52G G59C | < 1e-05
A52U C61A G62C | < 1e-05
A52U C61U C70A | < 1e-05
A53C U55G G66A | 0.00165 ± 0.00032
A53U C58G C61G C71G | 0.000415 ± 0.00016
U54C A64U | 5.96e-05 ± 1.3e-05
U55G C58G | 4.5e-05 ± 8.6e-06
U55G C70U C71G | 7.27e-05 ± 1.7e-05
U56C C67A C71G | < 1e-05
C58U C61G G66U | 6.41e-05 ± 2.3e-05
C61A U65A | < 1e-05
G63C G66A | < 1e-05
C68A C71U | 2.17e-05 ± 9.8e-06

Variants of: B1
Assay: self-cleavage kobs at 10000 uM GlcN6P; higher = faster cleavage; RNA array
Conditions: with glucosamine-6-phosphate
In short: as §1

Variant | self-cleavage kobs at 10000 uM GlcN6P [s⁻¹]
A39U U49A U56G | < 1e-05
G40U U49G | 6.94e-05 ± 1.1e-05
G41C A64U | < 1e-05
A42U A53U | 9.14e-05 ± 8.2e-06
G44A G51U U57A | < 1e-05
U47C A48G A52C G62A | < 1e-05
U47G A48U U56G C68A | 4.62e-05 ± 1.6e-05
U47G U57G | 5.61e-05 ± 1.2e-05
A48U C71A | 0.000111 ± 1.4e-05
G51U G59C G66U | < 1e-05
U54C A64U | 6.16e-05 ± 1.3e-05
U55G C58G | 9.57e-05 ± 1.1e-05
A6C A12C A53U U57C | < 1e-05
A6C C8U G38C G43C | < 1e-05
A6C C16G U31C C34G C68A | < 1e-05
A6C C19A G51C | < 1e-05
A6C G7A G35U G37A | < 1e-05
A6C G13A C34A G44A G60U | < 1e-05
A6C G26U G37C G38C | < 1e-05
A6C G51U A52C | < 1e-05
A6C U30A A33C G60U | < 1e-05
A6C U30G G35U | < 1e-05
A6C U31C G35A A42C | < 1e-05
A6C U46G G63C | < 1e-05
A6G C11U G32A G44A G51C C58U G60U C61G G63U | < 1e-05
A6G C34G A36U A48C | < 1e-05

Variant | self-cleavage kobs at 10000 uM GlcN6P [s⁻¹]
A6G U46A U69A | < 1e-05
A6G U54A U56A | 0.000141 ± 2.8e-05
A6G U55G C70U | 8.99e-05 ± 1.5e-05
A6U A39U U54A G60U | < 1e-05
A6U C11A G62A C71U | < 1e-05
A6U C16U A39G G44U C50U G60U | < 1e-05
A6U G29U G35C C50U U56C | < 1e-05
A6U G35U G37C A53G | < 1e-05
A6U G40U G43A G59U | < 1e-05
A6U U30C G32U | < 1e-05
A6U U46A C58U U65C G66U | < 1e-05
A6U U56A G60C | < 1e-05
G7A A39U G43U | < 1e-05
G7A G40C U49G G60U | < 1e-05
G7A G60A G62U | < 1e-05
G7C A14G A39C A48G A53U | < 1e-05
G7C A14G G59C | < 1e-05
G7C C10A A48U G59A U65C | < 1e-05
G7C G32U G38C | < 1e-05
G7C G32U G41A U45C G62C | < 1e-05
G7C G35A A42C | < 1e-05
G7C U31C A36G G40C C68G | < 1e-05
G7U C11A C50A | < 1e-05
G7U C11G C68U | < 1e-05
G7U G9A G35C A42U C58U G62A | < 1e-05
G7U G9U G44A C68G | < 1e-05

Variant | self-cleavage kobs at 10000 uM GlcN6P [s⁻¹]
G7U G32C C61G | < 1e-05
G7U G37C G41C | < 1e-05
G7U U30G U57G C67A | < 1e-05
G7U U49C U69A | < 1e-05
C8A A12G A36U A53U | < 1e-05
C8A C11G U49C C67G | < 1e-05
C8A G9U A15G | < 1e-05
C8A G38U G40U A42C C58G | < 1e-05
C8G C11U C58A | < 1e-05
C8G G9U U30A A42G | < 1e-05
C8G G32C G35A G43C | < 1e-05
C8G G37C A53U | < 1e-05
C8G G41C G63A | < 1e-05
C8G U30A A39G G41C U54G C67A | < 1e-05
C8G U47A A64U C71A | < 1e-05
C8U A15C G29A G38U C70A | < 1e-05
C8U G13A U46G A48C U65G | < 1e-05
C8U G43A G60U | < 1e-05
G9A A33U U69C | < 1e-05
G9A G29C C61A | < 1e-05
G9A U55G C58G | < 1e-05
G9C A14U A20C G32A G40C A52G U54G G60C | < 1e-05
G9C A33C U57C C61U G62U C71A | < 1e-05
G9C A53G C71U | < 1e-05
G9C C16G A48U | < 1e-05
G9C C16U G60C | < 1e-05

Variant | self-cleavage kobs at 10000 uM GlcN6P [s⁻¹]
G9C C68G C71A | < 1e-05
G9C G13C A14U U31A A48G C61A | < 1e-05
G9C G35C C61U | < 1e-05
G9U A14U U31A U46G G59U G66C C67G | < 1e-05
G9U C34G G43U U57A | < 1e-05
G9U G29A U69C | < 1e-05
G9U U30C U31C G43A U65A C68U C71A | < 1e-05
C10A A12G G13A | < 1e-05
C10A A14U A52C | < 1e-05
C10A G60C G66U | < 1e-05
C10G A14U C16A U54G C61U G62U | < 1e-05
C10G A15U A48C U56G | < 1e-05
C10G A15U G29C A36U U55C | < 1e-05
C10G A42C U49G A52G U69G C70U | < 1e-05
C10G C16U C70A | < 1e-05
C10G C50U G62U C70G | < 1e-05
C10G G29C U30C G35C C70U | < 1e-05
C10G U30A G44A | < 1e-05
C10G U55G G63C | < 1e-05
C10U A12G G38U | < 1e-05
C10U A42C A52U | < 1e-05
C10U G13A | < 1e-05
C10U U46A | < 1e-05
C10U U54A C68G | < 1e-05
C11A A52C | < 1e-05
